Hit rate of the full screen: of about 230,000 compounds, about 3,600 (1.6%) were called active. Inconclusive means that the source gave no clear call. Such entries were picked first, then a sample of the others. Calls follow the shape of the dose curve; as a rule, active = well fitted inhibition curve with a large enough effect (not every such curve was filed as active); inconclusive = small, poorly fitted or top-dose-only effect, or another doubt; inactive = no such curve, though single readings can be large or run the other way. Where the call is inconclusive, the potency comes from a doubtful curve fit.
molecular target: Lysine-specific demethylase 4E (Homo sapiens) (UniProt B2RXH2); assay: qHTS Assay for Inhibitors of Human Jumonji Domain Containing 2E (JMJD2E); conditions: JMJD2E catalytic domain, FDH-coupled NADH fluorescence (FDH is formaldehyde dehydrogenase); series mostly up to 57.1 µM; activity change, negative = inhibition: at the top concentration
UniProt B2RXH2, sequence (B2RXH2 whole entry, looked up, the tested form may be a part): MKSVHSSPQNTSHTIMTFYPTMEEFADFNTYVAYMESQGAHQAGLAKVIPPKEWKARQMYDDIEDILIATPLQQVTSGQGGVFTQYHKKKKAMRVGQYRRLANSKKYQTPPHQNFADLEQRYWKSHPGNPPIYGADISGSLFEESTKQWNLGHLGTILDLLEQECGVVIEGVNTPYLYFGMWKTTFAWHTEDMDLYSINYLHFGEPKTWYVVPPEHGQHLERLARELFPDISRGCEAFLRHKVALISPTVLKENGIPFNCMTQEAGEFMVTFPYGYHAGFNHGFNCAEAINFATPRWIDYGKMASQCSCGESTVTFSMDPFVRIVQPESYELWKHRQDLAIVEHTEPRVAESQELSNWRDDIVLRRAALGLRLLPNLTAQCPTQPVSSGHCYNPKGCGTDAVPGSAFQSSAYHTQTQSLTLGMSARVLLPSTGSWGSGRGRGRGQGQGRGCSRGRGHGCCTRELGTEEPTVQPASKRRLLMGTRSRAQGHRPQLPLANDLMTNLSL
Also: nearly all actives have a fitted effect of over 50% in size.
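For activity change, negative = inhibition in this document: 0% = wells with enzyme and -100% = buffer wells without enzyme.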
Potency is read from the fitted curve at half-maximal effect; tags tell the direction and shape of the fitted curve.

Q: For Cc1c(NC(=O)C(C)N2C(=O)C3CCCCC3C2=O)c(=O)n(-c2ccccc2)n1C (stereo unspecified), which Potency is on record?
A: inconclusive: 39.8 µM [inhibitor, single point]

Q: How did the Potency turn out when CC(=O)/C(=C\Nc1ccc(OCc2ccccc2)cc1)c1ccccc1 was run?
A: inconclusive: 28.2 µM [inhibitor, single point]

Q: With CNC(=O)c1cc2c(s1)CCCCCC2 as the molecule, how does the “activity change, negative = inhibition” value read?
A: inactive: -9.18%

Q: For N#CCC(=O)N/N=C/c1cn(Cc2cccc3ccccc23)c2ccccc12, which Potency is on record?
A: inconclusive: 39.8 µM [inhibitor, single point]

Q: CSc1nc2ncc(C(=O)O)c(N)n2n1 was tested. Which Potency did it give?
A: inconclusive: 31.6 µM [inhibitor, partial curve]

Q: How did the “activity change, negative = inhibition” value turn out when CC1=CCC(/C=N\Nc2nnc3c(n2)[nH]c2ccccc23)CC1 (stereo unspecified) was run?
A: inactive: -3.14%

Q: For COc1ccc(Cn2c(N)c(S(=O)(=O)c3cccs3)c3nc4ccccc4nc32)cc1, which Potency is on record?
A: inconclusive: 28.2 µM [inhibitor, partial curve]

Q: With CCCCn1c(=O)[nH]c(=O)c2c1nc(-c1ccncc1)n2CCOC as the molecule, how does the Potency read?
A: inconclusive: 17.8 µM [inhibitor, partial curve]

Q: Which “activity change, negative = inhibition” value does the source give for COc1ccc(N(CC(=O)N2CCCCC2)S(=O)(=O)c2ccccc2)c(OC)c1 here?
A: inactive: 2.91%

Q: How did the “activity change, negative = inhibition” value turn out when CC(C)CC(NC(=O)CCl)c1ccccc1 (stereo unspecified) was run?
A: inactive: -3.67%

Q: How did the Potency turn out when CC(=O)Nc1ccc(S(=O)(=O)N2CCN(Cc3cccnc3)CC2)cc1 was run?
A: inconclusive: 39.8 µM [inhibitor, single point]

Q: How did the “activity change, negative = inhibition” value turn out when COc1cc(NC(=O)c2ccccc2)c(OC)cc1NC(=O)CN1CCOCC1 was run?
A: inactive: -13.6%

Q: Which Potency does the source give for CCOP(=O)(OCC)c1nc(-c2ccc(Cl)cc2Cl)oc1N1CCOCC1 here?
A: inconclusive: 39.8 µM [inhibitor, single point]

Q: How did the “activity change, negative = inhibition” value turn out when CC(=O)Nc1ccc2c(CSc3nnc(N)s3)cc(=O)oc2c1 was run?
A: inactive: -5.55%

Q: With COc1ccc(S(=O)(=O)N2CCOCC2)cc1NC(=O)CSc1nnc2ccccn12 as the molecule, how does the Potency read?
A: inconclusive: 39.8 µM [inhibitor, single point]

Q: How did the Potency turn out when CC1=C(C(=O)Nc2ccc(C)cn2)C(c2cnn(C)c2)C2=C(CCCC2=O)N1 (stereo unspecified) was run?
A: inconclusive: 31.6 µM [inhibitor, partial curve]

Q: With Cc1nnc(SCC2=C(C(=O)O)N3C(=O)[C@@H](NC(=O)Cn4cnnn4)[C@@H]3SC2)s1 as the molecule, how does the “activity change, negative = inhibition” value read?
A: inactive: -1.37% [at 25.5 µM]

Q: CC(C)c1ccc2[nH]c3c(c2c1)CCCC3=O was tested. Which Potency did it give?
A: inconclusive: 25.1 µM [inhibitor, partial curve]

Q: With COCCn1c(=NC(=O)c2cc(-c3cccs3)nc3ccccc23)sc2cc(S(N)(=O)=O)ccc21 as the molecule, how does the Potency read?
A: inconclusive: 25.1 µM [inhibitor, partial curve]

Q: For CN(C)CCCN1C(=O)c2oc3ccccc3c(=O)c2C1c1cccs1 (stereo unspecified), which Potency is on record?
A: inconclusive: 39.8 µM [inhibitor, single point]

Q: Which “activity change, negative = inhibition” value does the source give for O=C(O)CCN1C(=O)/C(=C\c2ccc(-c3nc4ccccc4s3)o2)SC1=S here?
A: inactive: -1.54%

Q: With O=C(c1cnn2c(C(F)F)cc(-c3ccccc3)nc12)N1CCN2CCCC2C1 (stereo unspecified) as the molecule, how does the Potency read?
A: inconclusive: 39.8 µM [inhibitor, single point]

Q: For N#Cc1c(N2CCCCC2)nc(N)c2c(N)nc(SCC(=O)O)cc12, which Potency is on record?
A: inconclusive: 31.6 µM [inhibitor, partial curve]

Q: With Cc1nc2ccccc2c(=O)n1/N=C/c1ccccc1O as the molecule, how does the Potency read?
A: active: 25.1 µM

Q: Which Potency does the source give for COc1cccc(/C=N/n2nnnc2N)c1 here?
A: inconclusive: 28.2 µM [inhibitor, partial curve]

Q: Cn1nc(-c2ccc(N3CCN(CCO)CC3)c([N+](=O)[O-])c2)c2ccccc2c1=O was tested. Which “activity change, negative = inhibition” value did it give?
A: inactive: -3.79%

Q: For CC(C)(C)NC(=O)Nc1ccc(F)c(Cl)c1, which “activity change, negative = inhibition” value is on record?
A: inactive: -0.784%

Q: Which Potency does the source give for CCc1ccc(NC(=O)CSc2nc(NS(=O)(=O)c3ccccc3)cc(=O)[nH]2)cc1 here?
A: inconclusive: 35.5 µM [inhibitor, single point]

Q: Which Potency does the source give for COCCN(C(=O)/C=C/c1ccccc1)c1nnc(-c2cccnc2)s1 here?
A: inconclusive: 39.8 µM [inhibitor, single point]

Q: CSc1nnc(Nc2ccccc2C)s1 was tested. Which “activity change, negative = inhibition” value did it give?
A: inactive: 1.22%

Q: C=CCNc1oc(-c2cccs2)nc1C#N was tested. Which Potency did it give?
A: inconclusive: 31.6 µM [inhibitor, partial curve]

Q: With Cc1cc(Cl)cc(Cl)c1OCCCCN(C)C as the molecule, how does the Potency read?
A: inconclusive: 28.2 µM [inhibitor, single point]

Q: COC(=O)c1cc(C)nc(N)c1C#N was tested. Which Potency did it give?
A: inconclusive: 28.2 µM [inhibitor, partial curve]

Q: With c1ccc(Nc2nnc(-c3cccc4ccccc34)o2)cc1 as the molecule, how does the Potency read?
A: inconclusive: 25.1 µM [inhibitor, single point]

Q: COc1ccc(CN2CCNC(=O)C2CC(=O)NCc2ccc(C)s2)c(OC)c1 (stereo unspecified) was tested. Which Potency did it give?
A: inconclusive: 39.8 µM [inhibitor, single point]

Q: How did the “activity change, negative = inhibition” value turn out when Cc1onc(-c2ccccc2Cl)c1C(=O)Nc1ccc(-n2nncc2C(C)(C)C)cc1 was run?
A: inactive: -0.691%

Q: Which Potency does the source give for Cc1[nH]c2ccc(F)cc2c(=O)c1SC(F)(F)C(F)C(F)(F)F (stereo unspecified) here?
A: inconclusive: 39.8 µM [inhibitor, single point]

Q: With CC1=NN(C(=O)COc2ccccc2)C(O)(c2cccnc2)C1 (stereo unspecified) as the molecule, how does the Potency read?
A: inconclusive: 31.6 µM [inhibitor, single point]

Q: Cc1ccc(Cc2c(C)nc3nc(SCC(=O)NCc4ccco4)nn3c2C)cc1 was tested. Which “activity change, negative = inhibition” value did it give?
A: inactive: -7.15%

Q: With Cn1c(SCC(=O)N/N=C/c2ccc([N+](=O)[O-])s2)nnc1-c1ccccc1 as the molecule, how does the “activity change, negative = inhibition” value read?
A: inactive: 4.21%

Q: How did the Potency turn out when COc1ccc(-c2cnnc(N/N=C/c3ccc(O)c(O)c3)n2)cc1 was run?
A: active: 25.1 µM

Q: How did the “activity change, negative = inhibition” value turn out when COc1cc(C(c2sc3nc(C)nn3c2O)N2CC(C)CC(C)C2)cc(OC)c1OC (stereo unspecified) was run?
A: inactive: -2.75%

Q: Which Potency does the source give for Cc1c(-c2cc[n+]([O-])cc2)oc2ccc(Br)cc2c1=O here?
A: inconclusive: 28.2 µM [inhibitor, single point]

Q: Which Potency does the source give for CCC(OCC(O)CN1CCN(CCN2C(=O)c3cccc4cccc(c34)C2=O)CC1)c1ccccc1 (stereo unspecified) here?
A: inconclusive: 39.8 µM [inhibitor, single point]

Q: How did the “activity change, negative = inhibition” value turn out when CC(=O)NCCC(=O)Nc1ccc(C(N)=O)cc1 was run?
A: inactive: 7.39%

Q: Which “activity change, negative = inhibition” value does the source give for CCOC(=O)/C=C/CCC/C=C/C(=O)c1ccccc1 here?
A: inactive: -6.46%

Q: For Cc1ccc2c(c1)c1c(n2CC(O)Cn2nc(C)c(Br)c2C)CCCC1 (stereo unspecified), which “activity change, negative = inhibition” value is on record?
A: inactive: 8.04%

Q: With COc1ccc(C2C(C(=O)N3CCN(c4ccccn4)CC3)CCC(=O)N2c2cc(OC)c(OC)c(OC)c2)cc1 (stereo unspecified) as the molecule, how does the Potency read?
A: inconclusive: 35.5 µM [inhibitor, single point]

Q: How did the Potency turn out when COCCOC(=O)c1c(C)nc(SCC(=O)Nc2ccc(C)cc2)c(C#N)c1-c1ccco1 was run?
A: inconclusive: 39.8 µM [inhibitor, single point]

Q: Which “activity change, negative = inhibition” value does the source give for CCN(CC)c1ccc(C(=S)NCc2ccccc2)cc1 here?
A: inactive: -27.3%

Q: COc1ccc(CCN(C)Cc2ccc(OCc3ccccc3)c(OC)c2)cc1OC was tested. Which Potency did it give?
A: inconclusive: 35.5 µM [inhibitor, single point]

Q: How did the “activity change, negative = inhibition” value turn out when CCC(=O)N1CCN(c2ccc(NC(=O)c3ccc(N4CCCC4)c([N+](=O)[O-])c3)cc2)CC1 was run?
A: inactive: -7.32%

Q: CN(C1CCCCC1)S(=O)(=O)c1ccc(NC(=O)C2CCCCC2)cc1 was tested. Which “activity change, negative = inhibition” value did it give?
A: inactive: 0.26%

Q: How did the Potency turn out when CCN1c2ccccc2N(C)C1(C)c1ccccc1 (stereo unspecified) was run?
A: inconclusive: 8.91 µM [inhibitor, single point]

Q: With Cn1cc(Cl)c(C(=O)NNC(=S)NC2CCCCC2)n1 as the molecule, how does the Potency read?
A: inconclusive: 39.8 µM [inhibitor, single point]

Q: With CN(C)c1ccc(N/C(=N\S(=O)(=O)c2cccs2)c2ccccc2)cc1 as the molecule, how does the “activity change, negative = inhibition” value read?
A: inactive: -3.11%

Q: For C=CCNC(=O)CN1C(=O)C2C3c4ccccc4C(c4ccccc43)C2C1=O (stereo unspecified), which “activity change, negative = inhibition” value is on record?
A: inactive: -2.27%

Q: O=C(/C=N/O)NCCCn1ccnc1 was tested. Which “activity change, negative = inhibition” value did it give?
A: inactive: 0.91%

Q: For CCc1nc(C)cn1S(=O)(=O)c1cc([N+](=O)[O-])ccc1Cl, which “activity change, negative = inhibition” value is on record?
A: inactive: 6.08%

Q: For Cc1cc(C)n(CC(O)Cn2c3ccc(Cl)cc3c3cc(Cl)ccc32)c(=O)n1 (stereo unspecified), which “activity change, negative = inhibition” value is on record?
A: inactive: -8.19%

Q: How did the Potency turn out when Cc1nc2ccccc2c(=O)n1/N=C/c1ccc2ccccc2c1O was run?
A: inconclusive: 25.1 µM [inhibitor, single point]

Q: For COc1ccc(C(=O)CCN2CCCCCC2)cc1, which “activity change, negative = inhibition” value is on record?
A: inactive: -3.2%

Q: For O=C1CC(c2ccco2)CC(O)=C1C=Nc1cc(Cl)ccc1O (stereo unspecified), which Potency is on record?
A: active: 28.2 µM

Q: Which “activity change, negative = inhibition” value does the source give for N#CCc1ccc(C(=O)c2ccccc2)s1 here?
A: inactive: -6.43%

Q: C/C(=N\NC(=O)Cn1c(-c2ccccn2)nc2ccccc21)c1ccccc1 was tested. Which Potency did it give?
A: inconclusive: 31.6 µM [inhibitor, partial curve]

Q: For O=C(O)CCn1c(CO)nc2ccccc21, which Potency is on record?
A: inconclusive: 20 µM [inhibitor, partial curve]

Q: Which “activity change, negative = inhibition” value does the source give for CC(C)(C)OC(=O)N1CCC[C@H]1C(=O)NCc1ccc(Cl)cc1Cl here?
A: inactive: 0.712%

Q: For Cc1sc2ncn(CC(=O)NCCCOC(C)C)c(=O)c2c1S(=O)(=O)N1CCN(c2ncccn2)CC1, which Potency is on record?
A: inconclusive: 39.8 µM [inhibitor, single point]

Q: Cc1cc(=O)oc(C)c1C(=O)OCC(=O)c1ccc(Br)cc1 was tested. Which Potency did it give?
A: inconclusive: 39.8 µM [inhibitor, single point]

Q: For COc1ccc(N(CC(=O)N/N=C/c2ccc3c(c2)OCO3)S(=O)(=O)c2ccc(NC(C)=O)cc2)cc1, which Potency is on record?
A: inconclusive: 28.2 µM [inhibitor, single point]

Q: Which Potency does the source give for CC(=O)c1ccc2c(c1)C1C=CCC1C(c1ccncc1)N2 (stereo unspecified) here?
A: inconclusive: 25.1 µM [inhibitor, partial curve]

Q: With Cc1cccc(C)c1OCCOCCN1CCN(C)CC1 as the molecule, how does the Potency read?
A: inconclusive: 28.2 µM [inhibitor, single point]

Q: O=c1c2ccccc2nc2c3ccccc3c(NCc3ccco3)nn12 was tested. Which Potency did it give?
A: inconclusive: 10 µM [inhibitor, partial curve]

Q: For O=C(/C=C/c1cccc([N+](=O)[O-])c1)NCCSCc1ccccc1Cl, which “activity change, negative = inhibition” value is on record?
A: inactive: 7.32%

Q: How did the Potency turn out when Cc1nc(-c2ccc(Cl)cc2)sc1C(=O)O was run?
A: inconclusive: 28.2 µM [inhibitor, single point]

Q: Which “activity change, negative = inhibition” value does the source give for CCc1nnc(NS(=O)(=O)c2ccc(NC(=S)NC(=O)/C=C/c3ccc(C(C)C)cc3)cc2)s1 here?
A: inactive: -10.9%

From PubChem BioAssay AID2147 (National Center for Advancing Translational Sciences (NCATS), 2009)
